Results on 88 compounds are retold here after the supplement of paper PMC4723716.

SMILES strings stand for the structures. In all, about 3,600 compounds were measured (“viability index relative to DMSO control”: median about 0.81, lowest 2% from about 0.13 on). This is one part of the list.
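Also: 384-well serum-free SaLSSA: MitoTracker Red CMXRos staining with saponin lysis, high-content imaging, treated-well particle count divided by plate-mean count of DMSO wells.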

This test deals with Plasmodium falciparum NF54 stage V gametocytes. As to the kind of experiment: viability index relative to DMSO control (fraction); higher = less gametocyte killing. Conditions: 1.25 µM, incubation time: 72 h.
`CC(C)=CCCC1=CCC(CNCCCN(C)C)C(C)C1` (stereo not drawn) had a viability index of 0.498.
Compound `CCOC(=O)c1c(C)[nH]c(C)c1S(=O)(=O)N1CCCC(C(=O)N2CCN(c3cc(C)ccc3C)CC2)C1` (stereo not drawn) came in with a viability index of 0.9.
In turn, `O=C(NC(=CC=Cc1ccccc1)C(=O)N1CCCCC1)c1ccc([N+](=O)[O-])cc1` returned a viability index of 0.866.
As for `CCN(CC)c1ccc(C=Cc2cc[n+](Cc3ccc(F)cc3)cc2)cc1`, the figure is 0.677.
Under `CCCOC(=O)C1=C(C)NC2=C(C(=O)CC(c3ccc(OC)c(OC)c3)C2)C1c1cccc([N+](=O)[O-])c1` (stereo not drawn) stands 1.2.
Under `COc1cccc(NC(=O)c2ccc(NCCCN3CCC(C)CC3)c([N+](=O)[O-])c2)c1` stands 1.07; under `CCN(CC)c1ccc(C=NNC(=O)c2ccc(Nc3nc(-c4ccccc4)cs3)cc2)c(O)c1`, 0.675; under `Cc1ccc(C)c(Nc2nc3c(s2)CCCC3)c1`, 0.682.
`Cn1cc(C(c2cccs2)c2cn(C)c3ccccc23)c2ccccc21` registered a viability index of 1.05.
As for `COc1ccc(-c2cc(C3CCN(c4nc(N)c5cc(OC)c(OC)cc5n4)CC3)n[nH]2)cc1OC`, the figure is 1.17; as for `CCOC(=O)C1=C(C)NC2=C(C(=O)CC(c3ccc(OC)c(OC)c3)C2)C1c1cccc(Br)c1` (stereo not drawn), 0.927; as for `O=C(COc1cccc(Cl)c1)Nc1nccs1`, 0.95.
Under `Cc1ccc(NC(=O)C2CSC(c3cccc(F)c3)N2C(=O)c2ccc(C(C)(C)C)cc2)cc1` (stereo not drawn) stands 0.673; under `CCN1C(=Cc2cccc[n+]2C)Sc2ccc(C)cc21`, 1.16; under `CC(=O)c1cc(CN2CCC(C(=O)Nc3ccc(-n4nc(C)cc4C)cc3)CC2)cs1`, 0.76.
`N#Cc1c(NC(=O)COc2ccc(F)cc2F)sc2c1CCC2` had a viability index of 1.23.
`CCOC(=O)C1=C(C)NC2=C(C(=O)C(C(=O)OCC)C(c3cccc(OC)c3)C2)C1c1ccc(Br)cc1` (stereo not drawn) came in with a viability index of 1.12.
As for `Cc1ccc(C=C2SC(=Nc3ccccc3)NC2=O)c(C)c1`, the figure is 0.532.
As for `Cc1c(C#N)c2ccccc2n1CC(=O)NCCc1ccccc1`, the figure is 0.798; as for `COc1nccnc1NS(=O)(=O)c1ccc(NC(=O)c2cc3ccccc3oc2=O)cc1`, 0.855; as for `COc1ccc2nc(C)cc(NN=Cc3cccc(OC)c3O)c2c1`, 0.57.
`COc1ccc2nc(C)cc(Nc3ccc(Oc4ccc(Br)c5ccccc45)c(Cl)c3)c2c1` had a viability index of 0.422.
`COc1cc2cc(C(=O)Nc3ccccc3)c(N)nc2cc1OC`: the viability index is 0.895.
Under `Cc1ccc(Cn2c(SCc3ccc(C(=O)NCCc4ccccc4)cc3)nc3ccncc32)cc1` stands 0.905.
As for `CN(C)Cc1c(O)ccc2oc(Cc3ccccc3)cc12`, the figure is 0.404; as for `COc1cc(C2C(C(=O)OCC(C)C)=C(C)NC3=C2C(=O)CC(c2ccccc2)C3)cc(Br)c1O` (stereo not drawn), 0.819; as for `O=[N+]([O-])c1ccc(S(=O)(=O)N2CCN(C(=S)NCCc3ccccc3)CC2)cc1`, 0.298.
With `CC(C)C(=O)NC(Nc1cccc([N+](=O)[O-])c1)C(Cl)(Cl)Cl` (stereo not drawn), the viability index came out at 0.91.
Under `O=C(NC(=S)Nc1ccc(NC(=O)c2cccs2)cc1)c1ccco1` stands 0.677; under `C=CCOc1cccc(C(Nc2cccc(C)n2)c2ccc3cccnc3c2O)c1` (stereo not drawn), 0.981.
Compound `C[N+]1(CC(=O)NNc2c3ccccc3nc3ccccc23)CCOCC1` registered a viability index of 0.857.
Regarding `Cc1cccc(NC(c2ccccc2F)c2ccc3cccnc3c2O)n1` (stereo not drawn), the viability index stood at 1.05.
As for `OCCNc1nc(Nc2cccc(O)c2)nc2ccccc12`, the figure is 0.605; as for `Fc1ccc(CSc2ccc3nnc(-c4cccnc4)n3n2)cc1`, 1.07; as for `CC1=C(C(=O)OC(C)C)C(c2ccc([N+](=O)[O-])cc2)C2=C(CCCC2=O)N1` (stereo not drawn), 0.585.
In turn, `CC(NCCCN(C)C)c1cc(C(C)(C)C)cc2c1CCC2(C)C` (stereo not drawn) displayed a viability index of 0.283.
As for `CCN1CCCC1CNc1ncnc2c1[nH]c1ccc(C)cc12` (stereo not drawn), the figure is 0.713; as for `c1ccc(Cn2c(N=NNc3nc4ccccc4n3Cc3ccccc3)nc3ccccc32)cc1`, 0.545.
For `COc1ccc(C2CC(=O)C3=C(C2)NC(C)=C(C(=O)OC2CCCC2)C3c2ccccc2OC)cc1OC` (stereo not drawn), the viability index was determined as 0.753.
As for `COc1ccccc1C(=O)N1CCN(Cc2ccc3ccccc3c2)CC1`, the figure is 0.913; as for `COc1ccccc1Nc1nc(NCc2ccccc2)c2ccccc2n1`, 0.544.
As for `O=C(Nc1c(C(=O)Nc2cccc(Cl)c2)oc2ccccc12)c1cc(-c2ccccc2O)n[nH]1`, the figure is 0.368.
Under `COc1ccc2nc(C)cc(Nc3ccc(Cl)c(Cl)c3)c2c1` stands 0.634.
Regarding `COc1ccc(CNC(=O)CCc2cn(Cc3cc(C)ccc3C)c3ccccc23)cc1OC`, the viability index amounted to 0.835.
As for `CCOc1ccc2nc3cc(NCc4ccco4)ccc3c(N)c2c1`, the figure is 0.775; as for `Cc1ccc2ncnc(Nc3cccc(C(F)(F)F)c3)c2c1`, 0.751.
As for `CCOc1ccc(Nc2nc(N3CCCCC3)nc(N3CCCCC3)n2)cc1`, the figure is 0.695; as for `CCCC(=O)O[C@]1(C(=O)CCl)[C@@H](C)C[C@H]2[C@@H]3CCC4=CC(=O)C=C[C@]4(C)[C@@]3(F)C(=O)C[C@@]21C`, 0.246; as for `Cc1ccc(NC(=O)CCCCC(=O)Nc2ccc(C)c(Br)c2)cc1Br`, 0.996.
Under `CCOc1ccc2[nH]c(=O)c(CN(CCCN3CCOCC3)C(=S)NCCCN(CC)CC)cc2c1` stands 0.814; under `O=C(/C=C/c1ccccn1)NCC1Cc2cc(-c3cnccn3)ccc2O1` (stereo not drawn), 0.788.
Regarding `O=C(c1ccc(Cl)cc1Cl)N1CCCC(C(F)(F)F)C1` (stereo not drawn), the viability index is 0.872.
Under `CCCCCc1c(C)c(C#N)c2nc3ccccc3n2c1NCCN(CC)CC` stands 0.961.
Under `Cc1cc(Nc2ccc(I)cc2)n2ncnc2n1` stands 0.888; under `CCC1=NN2C(=N)/C(=C/c3ccc(OCCOc4ccc(Br)cc4)c(OC)c3)C(=O)N=C2S1`, 0.751.
As for `COc1ccccc1N1CCN(C2CCN(C3CCC(c4ccccc4)CC3)CC2)CC1` (stereo not drawn), the figure is 0.892; as for `CC(=O)N(C=C1Sc2ccccc2C1=O)c1ccc(C)cc1`, 0.785.
On to `O=C(NC1CC1)C1CCN(c2cccc3c2C(=O)N(Cc2cccc(C(F)(F)F)c2)C3=O)CC1`, for which the viability index came to 1.13.
Turning to `CC(C)CC(=O)OC1C(N2CCCCC2)c2c(ccc(C=CC(=O)N3CCCCC3)c2O)OC1(C)C` (stereo not drawn), the viability index is 0.706.
Turning to `CCOC(=O)C1=C(N)N(c2cccc([N+](=O)[O-])c2)C2=C(C(=O)CC(C)(C)C2)C1c1ccc(Br)cc1` (stereo not drawn), the viability index was 0.543.
As for `COc1cc(Nc2cncc(-c3ccncc3)n2)cc(OC)c1OC`, the figure is 0.524; as for `Cc1cc(C)c2c(c1)c(-c1ccccc1)c(-c1ccccc1)n2CC(O)Cn1cnc(-c2ccccc2)c1-c1ccccc1` (stereo not drawn), 0.615.
As for `O=C(C1CC1)N1CCc2cc(Br)cc(S(=O)(=O)N3CCCCC3)c21`, the figure is 0.839; as for `Clc1ccc(-c2c[n+](Cc3ccccc3Cl)c3n2CCC3)cc1`, 1.27; as for `CC[n+]1ccccc1C=Cc1ccc(N(C)C)cc1`, 0.895.
As for `Cc1ccc2[nH]c(C)c(Br)c(=O)c2c1`, the figure is 0.869; as for `CCNC1=C(C(=O)c2ccccc2)N(CC(=O)c2ccc(Br)cc2)S(=O)(=O)c2ccccc21`, 0.758.
Compound `O=C(Nc1ccc(-n2cccn2)cc1)C1CCN(CC=Cc2ccccc2)CC1` came in with a viability index of 0.635.
Under `O=C(COC(c1cccs1)c1cccnc1Cl)N1CCN(C(=O)Nc2ccccc2)CC1` (stereo not drawn) stands 0.869.
For the compound `COc1cc2nc(CN(C)C(C)c3cccs3)nc(N3CCCC3)c2cc1OC` (stereo not drawn), the viability index was found to be 0.804.
As for `O=C(Nn1c(SCc2cc(=O)n3ccccc3n2)nc2ccsc2c1=O)c1cccc(Br)c1`, the figure is 1.45.
Under `CC(C)(C)NC(=O)C(c1ccncc1)N(Cc1ccccc1Cl)C(=O)c1ccc(-c2ccccc2)[nH]1` (stereo not drawn) stands 0.921.
Under `Cc1ccc(NC(=O)c2ccc(NCCCN3CCCCCC3)c([N+](=O)[O-])c2)cc1F` stands 1.51; under `CCCn1c(C=NNc2nc3ccccc3[nH]2)nc2ccccc21`, 0.456; under `Cc1nc([P+](c2ccccc2)(c2ccccc2)c2ccccc2)c(SCc2ccccc2)o1`, 0.203.
`O=C(c1cnsn1)N1CCCC(COc2cccc(CN3CCC(Cc4ccccc4)CC3)c2)C1` (stereo not drawn) yielded a viability index of 0.827.
Under `CC1CN(C2CC(=O)N(c3ccccc3)C2=O)CC(C)O1` (stereo not drawn) stands 1.03.
`OC(CNc1cccc2ccccc12)Cn1c2ccccc2c2ccccc21` (stereo not drawn) had a viability index of 0.842.
In turn, `c1ccc(CCCNc2ccnc3cc4ccccc4cc23)cc1` returned a viability index of 0.52.
Under `CC1=C(C(=O)OC(C)C)C(c2ccccc2F)C2=C(CC(c3ccc(Cl)cc3)CC2=O)N1` (stereo not drawn) stands 0.887; under `COc1cccc2c(C)cc(NCc3ccccc3Cl)nc12`, 0.724; under `CCc1ccc(NC(=O)C2c3ccccc3C(=O)N(CC(C)C)C2c2cccs2)cc1` (stereo not drawn), 0.309.
`Cc1ccc(NC(=O)N(CCN(C)C)Cc2cc3cc4c(cc3[nH]c2=O)OCCO4)cc1` showed a viability index of 1.02.
Under `Cc1cc(-c2ccc(O)c(CN3CCCCC3CO)c2)c2ccccc2n1` (stereo not drawn) stands 0.885; under `CN1CCN(NC=C2C(=O)N(c3nc4ccccc4s3)N=C2c2ccccc2)CC1`, 0.846; under `COCCSc1nc2sc3c(c2c(=O)n1-c1ccc(OC)cc1)CCN(C)C3`, 0.83.
As for `CN(C=CC1=[N+](C)c2ccc(Cl)cc2C1(C)C)c1ccccc1`, the figure is 0.83; as for `Oc1ccc(Br)c(C(Nc2ccccn2)c2ccc3cccnc3c2O)c1` (stereo not drawn), 0.969.
